Data as given in the supplement of paper PMC11741623.
Some of the results follow. Interaction screen of human proteins with wild-type SARS-CoV-2 proteins by split-DHFR complementation in yeast, 1 µg/mL methotrexate. Value = fitness of the pair (three or more lineages) minus that of the viral protein without a human partner, on a scale set by negative (0) and fused positive (1) controls, mean of up to three cultures; higher = more likely to interact. Active = false discovery rate below 0.05 (one-sided t-test) in at least one culture. Nearly all pairs are not hits, and differences among them are mostly noise (correlation between cultures about 0.3); most hits were seen in one culture only. Human sequences are the Swiss-Prot entries looked up by gene name; the clone may be another isoform. NSP2 values were corrected by the authors for a growth advantage. Listed are human proteins with a hit and a random twelfth of the others.

Assays:
Assay in all cases: yeast fitness gain over the viral ORF with no human partner (scaled fitness); higher = more likely to interact
SARS-CoV-2 E = molecular target: SARS-CoV-2 E
Method: (§1)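 Split mouse DHFR complementation in pooled diploid yeast: human ORFeome clones carry one fragment and viral ORFs the other; barcoded lineages compete in 1 µg/mL methotrexate and fitness is read by barcode sequencing in up to three cultures.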

SARS-CoV-2 M = molecular target: SARS-CoV-2 M
Method: as §1

SARS-CoV-2 N = molecular target: SARS-CoV-2 N
Method: as §1

SARS-CoV-2 NSP1 = molecular target: SARS-CoV-2 NSP1
Method: as §1

SARS-CoV-2 NSP10 = molecular target: SARS-CoV-2 NSP10
Method: as §1

SARS-CoV-2 NSP12 = molecular target: SARS-CoV-2 NSP12
Method: as §1

SARS-CoV-2 NSP13 = molecular target: SARS-CoV-2 NSP13
Method: as §1

SARS-CoV-2 NSP14 = molecular target: SARS-CoV-2 NSP14
Method: as §1

SARS-CoV-2 NSP15 = molecular target: SARS-CoV-2 NSP15
Method: as §1

SARS-CoV-2 NSP16 = molecular target: SARS-CoV-2 NSP16
Method: as §1

SARS-CoV-2 NSP2 = molecular target: SARS-CoV-2 NSP2
Method: as §1

SARS-CoV-2 NSP4 = molecular target: SARS-CoV-2 NSP4
Method: as §1

SARS-CoV-2 NSP5 = molecular target: SARS-CoV-2 NSP5
Method: as §1

SARS-CoV-2 NSP6 = molecular target: SARS-CoV-2 NSP6
Method: as §1

SARS-CoV-2 NSP7 = molecular target: SARS-CoV-2 NSP7
Method: as §1

SARS-CoV-2 NSP8 = molecular target: SARS-CoV-2 NSP8
Method: as §1

SARS-CoV-2 NSP9 = molecular target: SARS-CoV-2 NSP9
Method: as §1

SARS-CoV-2 ORF10 = molecular target: SARS-CoV-2 ORF10
Method: as §1

SARS-CoV-2 ORF3A = molecular target: SARS-CoV-2 ORF3A
Method: as §1

SARS-CoV-2 ORF3B = molecular target: SARS-CoV-2 ORF3B
Method: as §1

SARS-CoV-2 ORF6 = molecular target: SARS-CoV-2 ORF6
Method: as §1

SARS-CoV-2 ORF7A = molecular target: SARS-CoV-2 ORF7A
Method: as §1

SARS-CoV-2 ORF7B = molecular target: SARS-CoV-2 ORF7B
Method: as §1

SARS-CoV-2 ORF8 = molecular target: SARS-CoV-2 ORF8
Method: as §1

SARS-CoV-2 ORF9B = molecular target: SARS-CoV-2 ORF9B
Method: as §1

[1] = molecular target: SARS-CoV-2 ORF9Bwu (the 73-codon ORF)
Method: as §1

SARS-CoV-2 S = molecular target: SARS-CoV-2 S
Method: as §1

Measured: yeast fitness gain

B1: NEUROG1, Q92886 (protein)
chain: MPARLETCISDLDCASSSGSDLSGFLTDEEDCARLQQAASASGPPAPARRGAPNISRASEVPGAQDDEQERRRRRGRTRVRSEALLHSLRRSRRVKANDRERNRMHNLNAALDALRSVLPSFPDDTKLTKIETLRFAYNYIWALAETLRLADQGLPGGGARERLLPPQCVPCLPGPPSPASDAESWGSGAAAASPLSDPSSPAASEDFTYRPGDPVFSFPSLPKDLLHTTPCFIPYH
inactive: SARS-CoV-2 E 0.0344 | SARS-CoV-2 M 0.0946 | SARS-CoV-2 N -0.177 | SARS-CoV-2 NSP1 = 0.0703 | SARS-CoV-2 NSP10 = -0.119 | SARS-CoV-2 NSP12 = 0.0174 | SARS-CoV-2 NSP13 = 0.0452 | SARS-CoV-2 NSP14 = 0.0547 | SARS-CoV-2 NSP15 = 0.0974 | SARS-CoV-2 NSP16 = 0.00934 | SARS-CoV-2 NSP2 = -0.132 | SARS-CoV-2 NSP4 = -0.0213 | SARS-CoV-2 NSP5 = -0.011 | SARS-CoV-2 NSP6 = -0.0585 | SARS-CoV-2 NSP7 = -0.131 | SARS-CoV-2 NSP8 = 0.0135 | SARS-CoV-2 NSP9 = 0.0145 | SARS-CoV-2 ORF10 = -0.00775 | SARS-CoV-2 ORF3A 0.0112 | SARS-CoV-2 ORF3B -0.0122 | SARS-CoV-2 ORF6 = -0.0382 | SARS-CoV-2 ORF7A 0.0467 | SARS-CoV-2 ORF7B 0.107 | SARS-CoV-2 ORF8 = 0.0719 | SARS-CoV-2 ORF9B 0.0318 | [1] 0.0752 | SARS-CoV-2 S 0.0506

B2: C19orf75, Q8N7X8 (protein)
chain: MLPLLQLVPAKLLNSSCSLEKTLQCSCSFHGIPTPSVQWWMGGVPVGVDGMDGSLQVTSTMLGPWANSTISLTEEPEMGMRLLCEGKNQNGTHALSILLMSRKSSLAAQAFVKGLIQGAIYAGIVIALLFLCLLPLIVKHIRKKQAKKAAAIRAKKSSKVRASQELEMSLKPEEPGKPVVATFSESRILEKQDKRAS
inactive: SARS-CoV-2 E 0.0241 | SARS-CoV-2 M -0.0314 | SARS-CoV-2 NSP1 = 0.106 | SARS-CoV-2 NSP10 = 0.0303 | SARS-CoV-2 NSP12 = 0.0204 | SARS-CoV-2 NSP13 = -0.0259 | SARS-CoV-2 NSP15 = 0.074 | SARS-CoV-2 NSP16 = -0.142 | SARS-CoV-2 NSP2 = -0.145 | SARS-CoV-2 NSP4 = 0.0861 | SARS-CoV-2 NSP5 = 0.0187 | SARS-CoV-2 NSP6 = -0.0375 | SARS-CoV-2 NSP7 = 0.0336 | SARS-CoV-2 NSP8 = 0.00762 | SARS-CoV-2 NSP9 = -0.491 | SARS-CoV-2 ORF10 = -0.00578 | SARS-CoV-2 ORF3B 0.00338 | SARS-CoV-2 ORF6 = 0.0565 | SARS-CoV-2 ORF7A 0.0825 | SARS-CoV-2 ORF7B 0.0729 | SARS-CoV-2 ORF8 = 0.00512 | SARS-CoV-2 ORF9B 0.0293 | [1] -0.108 | SARS-CoV-2 S -0.0227

B3: KBTBD5, Q2TBA0 (protein)
chain: MALGLEQAEEQRLYQQTLLQDGLKDMLDHGKFLDCVVRAGEREFPCHRLVLAACSPYFRARFLAEPERAGELHLEEVSPDVVAQVLHYLYTSEIALDEASVQDLFAAAHRFQIPSIFTICVSFLQKRLCLSNCLAVFRLGLLLDCARLAVAARDFICAHFTLVARDADFLGLSADELIAIISSDGLNVEKEEAVFEAVMRWAGSGDAEAQAERQRALPTVFESVRCRLLPRAFLESRVERHPLVRAQPELLRKVQMVKDAHEGRITTLRKKKKGKDGAGAKEADKGTSKAKAEEDEEAERILPGILNDTLRFGMFLQDLIFMISEEGAVAYDPAANECYCASLSNQVPKNHVSLVTKENQVFVAGGLFYNEDNKEDPMSAYFLQFDHLDSEWLGMPPLPSPRCLFGLGEALNSIYVVGGREIKDGERCLDSVMCYDRLSFKWGESDPLPYVVYGHTVLSHMDLVYVIGGKGSDRKCLNKMCVYDPKKFEWKELAPMQTARSLFGATVHDGRIIVAAGVTDTGLTSSAEVYSITDNKWAPFEAFPQERSSLSLVSLVGTLYAIGGFATLETESGELVPTELNDIWRYNEEEKKWEGVLREIAYAAGATFLPVRLNVLCLTKM
inactive: SARS-CoV-2 E 0.0359 | SARS-CoV-2 M -0.0399 | SARS-CoV-2 NSP10 = 0.0575 | SARS-CoV-2 NSP12 = 0.0375 | SARS-CoV-2 NSP13 = 0.00445 | SARS-CoV-2 NSP14 = -0.00112 | SARS-CoV-2 NSP15 = 0.0305 | SARS-CoV-2 NSP16 = 0.0871 | SARS-CoV-2 NSP2 = -0.107 | SARS-CoV-2 NSP4 = 0.0262 | SARS-CoV-2 NSP5 = 0.0771 | SARS-CoV-2 NSP8 = -0.0298 | SARS-CoV-2 ORF10 = 0.0665 | SARS-CoV-2 ORF3B 0.00322 | SARS-CoV-2 ORF6 = -0.0294 | SARS-CoV-2 ORF7B -0.081 | SARS-CoV-2 ORF8 = -0.0345 | SARS-CoV-2 ORF9B 0.0564 | [1] 0.054 | SARS-CoV-2 S 0.0541

B4: CD79B, P40259 (protein)
chain: MARLALSPVPSHWMVALLLLLSAEPVPAARSEDRYRNPKGSACSRIWQSPRFIARKRGFTVKMHCYMNSASGNVSWLWKQEMDENPQQLKLEKGRMEESQNESLATLTIQGIRFEDNGIYFCQQKCNNTSEVYQGCGTELRVMGFSTLAQLKQRNTLKDGIIMIQTLLIILFIIVPIFLLLDKDDSKAGMEEDHTYEGLDIDQTATYEDIVTLRTGEVKWSVGEHPGQE
inactive: SARS-CoV-2 E -0.0118 | SARS-CoV-2 M 0.0219 | SARS-CoV-2 N -0.0617 | SARS-CoV-2 NSP1 = 0.000399 | SARS-CoV-2 NSP10 = 0.0291 | SARS-CoV-2 NSP12 = 0.00813 | SARS-CoV-2 NSP13 = -0.00585 | SARS-CoV-2 NSP14 = 0.0149 | SARS-CoV-2 NSP15 = 0.0129 | SARS-CoV-2 NSP16 = 0.0491 | SARS-CoV-2 NSP2 = -0.149 | SARS-CoV-2 NSP4 = -0.147 | SARS-CoV-2 NSP5 = 0.0254 | SARS-CoV-2 NSP6 = 0.00633 | SARS-CoV-2 NSP7 = -0.0255 | SARS-CoV-2 NSP8 = -0.0356 | SARS-CoV-2 NSP9 = 0.0343 | SARS-CoV-2 ORF10 = 0.0312 | SARS-CoV-2 ORF3A 0.0537 | SARS-CoV-2 ORF3B 0.00528 | SARS-CoV-2 ORF6 = 0.023 | SARS-CoV-2 ORF7A 0.0741 | SARS-CoV-2 ORF7B -0.0653 | SARS-CoV-2 ORF8 = -0.0172 | SARS-CoV-2 ORF9B 0.000329 | [1] 0.00348 | SARS-CoV-2 S 0.0117
